Laboratory results published in the supplement of paper PMC6531468.
The other results are listed elsewhere or left out. Values come from read counts of a selection and are noisy. Each score is taken over the longer molecules that contain the sequence shown.

Experiments:
Assay in all cases: 6-mer SELEX enrichment z-score vs GST control; IMP3 is the RNA-binding protein IGF2BP3; higher = more enriched by binding
[1] = test system: IMP3 KH1-4; settings: construct: KH1-4 (164-579); SELEX round: R4
Procedure: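 SELEX-seq with GST-tagged IMP3 KH1-4 (Pro164-Lys579) and an N40 RNA pool, round 4. 6-mer z-score of sequence-tag enrichment normalised to the corresponding GST SELEX round; RNA k-mers written as DNA (T for U).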

[2] = test system: IMP3 RRM1-2; settings: construct: RRM1-2 (1-163); SELEX round: R2
Procedure: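 SELEX-seq with GST-tagged IMP3 RRM1-2 (Met1-Asn163) and an N40 RNA pool, round 2. 6-mer enrichment z-score normalised to GST SELEX. RNA written as DNA (T = U).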

[3] = biological target: IMP3 full-length (UniProt O00425); settings: construct: FL IMP3 (1-579); SELEX round: R4
Procedure: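 SELEX-seq with GST-tagged full-length IMP3 and an N40 RNA pool, round 4. Each 6-mer is scored as an enrichment z-score of sequence tags containing it, normalised to the matching GST SELEX round. RNA written as DNA (T = U).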

[4] = test system: IMP3 KH1-2; settings: construct: KH1-2 (164-376); SELEX round: R4
Procedure: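 SELEX-seq with GST-tagged IMP3 KH1-2 (Pro164-Phe376) and an N40 RNA pool, round 4 (stringent 300/600 mM KCl washes). 6-mer z-score of sequence-tag enrichment normalised to the corresponding GST SELEX round; RNA k-mers written as DNA (T for U).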

[5] = test system: IMP3 KH3-4; settings: construct: KH3-4 (377-579); SELEX round: R4
Procedure: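 SELEX-seq with GST-tagged IMP3 KH3-4 (Pro377-Lys579) and an N40 RNA pool, round 4. 6-mer z-score of sequence-tag enrichment normalised to the corresponding GST SELEX round; RNA k-mers written as DNA (T for U).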

IMP3 KH3-4, sequence (chain, as listed by the source): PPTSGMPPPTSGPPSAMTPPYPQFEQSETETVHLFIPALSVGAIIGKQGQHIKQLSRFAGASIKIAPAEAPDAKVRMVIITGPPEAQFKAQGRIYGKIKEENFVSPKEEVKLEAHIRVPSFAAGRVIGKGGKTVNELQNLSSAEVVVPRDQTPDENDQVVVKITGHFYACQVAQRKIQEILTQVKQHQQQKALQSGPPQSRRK
IMP3 RRM1-2, sequence (chain, as listed by the source): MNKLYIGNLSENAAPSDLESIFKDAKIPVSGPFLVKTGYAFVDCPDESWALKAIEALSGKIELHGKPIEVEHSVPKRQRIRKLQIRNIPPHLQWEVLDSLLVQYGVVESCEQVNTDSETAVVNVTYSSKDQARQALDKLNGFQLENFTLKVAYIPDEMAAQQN
IMP3 KH1-4, sequence (chain, as listed by the source): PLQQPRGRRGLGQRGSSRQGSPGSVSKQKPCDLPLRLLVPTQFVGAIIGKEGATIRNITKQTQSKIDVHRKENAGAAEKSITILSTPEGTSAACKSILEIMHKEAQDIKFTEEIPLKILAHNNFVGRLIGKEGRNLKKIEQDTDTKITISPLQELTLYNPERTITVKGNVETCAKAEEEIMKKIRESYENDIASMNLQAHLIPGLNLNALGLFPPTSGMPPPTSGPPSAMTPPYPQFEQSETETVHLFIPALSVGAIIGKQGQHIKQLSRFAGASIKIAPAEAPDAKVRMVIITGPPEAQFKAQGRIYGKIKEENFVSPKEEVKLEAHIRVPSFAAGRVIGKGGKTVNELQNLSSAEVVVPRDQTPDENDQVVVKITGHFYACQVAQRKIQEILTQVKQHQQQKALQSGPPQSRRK
UniProt O00425, sequence (O00425 whole entry): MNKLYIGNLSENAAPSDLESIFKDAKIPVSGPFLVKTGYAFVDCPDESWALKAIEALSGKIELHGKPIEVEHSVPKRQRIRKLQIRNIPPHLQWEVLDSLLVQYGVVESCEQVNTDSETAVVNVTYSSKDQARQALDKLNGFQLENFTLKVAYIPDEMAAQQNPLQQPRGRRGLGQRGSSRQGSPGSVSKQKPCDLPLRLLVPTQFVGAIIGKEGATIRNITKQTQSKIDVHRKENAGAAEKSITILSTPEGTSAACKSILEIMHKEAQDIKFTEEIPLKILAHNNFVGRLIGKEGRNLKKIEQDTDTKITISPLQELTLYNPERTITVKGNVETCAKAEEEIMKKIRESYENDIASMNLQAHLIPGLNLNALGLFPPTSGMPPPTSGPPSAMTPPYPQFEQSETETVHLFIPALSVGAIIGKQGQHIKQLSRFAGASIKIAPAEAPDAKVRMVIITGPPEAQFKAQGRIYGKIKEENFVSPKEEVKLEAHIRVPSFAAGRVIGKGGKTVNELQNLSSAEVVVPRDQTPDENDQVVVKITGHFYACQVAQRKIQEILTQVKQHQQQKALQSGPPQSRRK
IMP3 KH1-2, sequence (chain, as listed by the source): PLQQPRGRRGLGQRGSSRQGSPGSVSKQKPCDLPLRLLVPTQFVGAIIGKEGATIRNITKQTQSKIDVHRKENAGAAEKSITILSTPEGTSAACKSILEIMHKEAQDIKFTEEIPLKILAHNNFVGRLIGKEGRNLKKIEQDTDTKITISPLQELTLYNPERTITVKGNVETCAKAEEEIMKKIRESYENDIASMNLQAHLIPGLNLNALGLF

Sequence	6-mer SELEX enrichment z-score [1]	6-mer SELEX enrichment z-score [2]	6-mer SELEX enrichment z-score [3]	6-mer SELEX enrichment z-score [4]	6-mer SELEX enrichment z-score [5]
TACACC	-0.128	0.072	-0.328	-0.002	-0.773
ACTGGG	-0.121	0.022	0.182	0.02	-0.021
GGTTCG	0.003	0.266	0.206	0.032	0.147
TGGGCG	-1.13	0.222	-0.082	-0.925	-0.691
ACGTTT	-0.603	-0.047	-0.42	-0.536	-0.394
ACCGGA	-0.409	-1.44	-0.557	-0.513	-0.684
CCCGTC	-0.771	-0.067	0.081	-0.589	-1.02
CGATCG	-1.25	-0.246	-0.393	-1.17	-1.15
ATTTCA	1.61	1.24	1.53	1.94	1.65
CGGACA	0.517	-0.142	0.909	0.245	0.212
GTAAAC	-0.846	-0.657	-0.976	-0.799	-0.618
ATCTGT	0.432	0.224	0.34	0.311	0.259
CACTAC	1.07	2.15	0.636	1.27	0.408
CATCAG	0.482	2.73	2.62	0.402	0.079
GAAGAT	0.923	-1.09	-0.362	0.592	1.28
AATCGT	-0.427	-0.316	-0.438	-0.572	-0.402
GTAGCC	-1.17	-0.226	-0.63	-1.17	-1.13
ATTGCT	0.587	0.175	0.098	0.516	0.555
GTCCTG	-0.264	-0.07	-0.201	-0.304	-0.43
AGTAGC	-0.446	0.132	-0.166	-0.497	-0.337
TCTTGC	-0.486	0.475	-0.119	-0.427	-0.399
CATAAC	1.6	1.43	1.67	2.15	1.41
TGCCGA	-1.24	-0.74	-0.755	-1.1	-1.19
TTTCTA	0.677	0.388	0.181	0.742	0.873
AGATTG	0.364	-0.429	-0.182	0.262	0.681

Sequence	6-mer SELEX enrichment z-score [1]	6-mer SELEX enrichment z-score [2]	6-mer SELEX enrichment z-score [3]	6-mer SELEX enrichment z-score [4]	6-mer SELEX enrichment z-score [5]
ACGTCA	-0.86	0.174	0.15	-0.93	-0.92
ATCGAT	-0.021	-0.158	-0.022	-0.155	0.036
TGTCTC	-0.267	0.618	0.339	-0.098	-0.048
CTATTC	0.727	0.48	0.16	0.663	0.473
GTGGAC	-0.157	-0.408	-0.086	-0.284	-0.352
TCCCTA	-0.212	-0.227	-0.617	-0.248	-0.545
GCGCCT	-0.899	0.003	-0.153	-0.657	-0.668
GAGGGT	-0.011	0.064	0.118	0.187	0.195
AGAATC	0.106	-0.223	-0.092	-0.05	0.19
ACGTCG	-0.29	0.176	0.632	-0.418	-0.346
CAGCCT	-0.406	0.047	-0.008	-0.352	-0.625
GAATCT	-0.125	-0.304	-0.276	-0.229	-0.143
TTACTT	0.789	0.291	0.159	0.773	0.933
TTCCAC	0.835	0.422	0.09	0.722	0.092
CTTAAT	0.975	-0.023	0.035	0.836	1.17
GGCGAT	0.113	0.125	0.683	0.133	0.538
GACTCA	-0.732	-0.011	-0.368	-0.649	-0.943
ACGGCG	0.003	0.127	1.13	-0.165	0.134
GCGTTA	-1.1	0.205	-0.435	-0.95	-0.802
GTATAC	-0.007	0.022	-0.165	-0.113	0.037
TAGTCA	0.173	0.406	0.206	-0.026	0.166
GAAATA	0.936	-1.55	-0.815	0.729	1.93
ACAAGA	0.217	-0.222	-0.123	0.389	0.584
TAACGT	-0.287	-0.39	-0.413	-0.451	-0.147
TATCTC	0.176	0.409	0.129	0.202	0.144

Sequence	6-mer SELEX enrichment z-score [1]	6-mer SELEX enrichment z-score [2]	6-mer SELEX enrichment z-score [3]	6-mer SELEX enrichment z-score [4]	6-mer SELEX enrichment z-score [5]
CCTTTT	0.709	0.117	-0.037	0.665	0.632
CTTTTA	1.03	0.159	0.162	1.01	1.29
GCATAT	0.976	0.582	0.832	0.751	0.969
CCACAA	-0.772	0.83	-0.383	-0.514	-1.41
TGTCGC	0.049	0.299	0.135	0.006	-0.065
GTCATC	0.096	0.801	0.798	-0.091	-0.126
AGATAT	1.11	-0.321	0.021	0.963	1.66
AGGGCG	-1.36	0.169	-0.102	-0.965	-0.78
CCGCCT	-0.451	-0.246	-0.331	-0.204	-0.683
CCACTC	-0.685	0.634	-0.21	-0.569	-1.17
TTTGTG	0.096	0.26	-0.263	-0.026	0.283
TGTGTG	0.823	0.266	-0.03	0.485	0.56
GGGCTC	-0.064	0.41	0.559	0.137	0.108
ACGCGA	-1.06	-0.819	-0.602	-1.01	-1.05
ACCCGG	-1.79	-1.05	-0.882	-1.62	-1.84
CGATTT	0.159	-0.111	-0.212	0.198	0.352
CCATCT	0.08	0.328	0.239	0.005	-0.385
CGGAAG	-0.396	-0.703	-0.206	-0.26	-0.309
CAAGCA	-0.125	1.73	0.874	-0.221	-0.334
GTAGAC	-1.18	-0.319	-0.653	-1.06	-1.14
TACTCA	-0.824	0.253	-0.458	-0.712	-0.863
TTCGTA	-0.132	0.229	-0.2	-0.184	-0.017
CGGCGG	0.201	0.178	1.29	0.314	0.25
GAGTCA	0.095	-0.08	0.373	-0.018	0.042
TGTCGT	-0.138	0.371	0.105	-0.147	0.031

Sequence	6-mer SELEX enrichment z-score [1]	6-mer SELEX enrichment z-score [2]	6-mer SELEX enrichment z-score [3]	6-mer SELEX enrichment z-score [4]	6-mer SELEX enrichment z-score [5]
TCGACA	-0.833	0.127	0.164	-0.824	-0.861
ACGGTG	-0.013	-0.049	0.069	-0.108	-0.078
TAAACT	0.568	-0.646	-0.799	0.54	0.897
ATCGAC	-1.15	-0.148	-0.251	-1.18	-1.24
TCCTGT	0.197	0.148	-0.153	0.129	-0.04
ACCCAT	-0.817	-0.194	-0.526	-0.841	-1.38
AGGCGG	0.408	0.02	0.897	0.589	0.545
CTATCG	-0.18	0.124	-0.14	-0.205	-0.229
GGGTCG	0.415	0.346	0.681	0.563	0.484
GCTATC	-0.184	0.353	0.126	-0.133	-0.146
CACTGC	0.672	0.693	0.739	0.824	-0.175
CAGGGC	-0.18	0.551	0.934	-0.01	0.04
GAATGT	0.239	-0.556	-0.521	-0.084	0.378
GTAATA	0.541	-0.446	-0.185	0.397	0.899
TTAAGA	0.266	-0.576	-0.561	0.122	1.01
TAGTGC	-0.165	0.17	-0.035	-0.246	-0.109
AAGTCT	-0.469	0.054	-0.143	-0.425	-0.352
GAGCGA	-3.78	-0.644	-1.61	-3.42	-3.28
GGTAGA	-0.224	-0.034	-0.081	-0.113	0.048
CCATCG	-0.322	0.088	0.15	-0.496	-0.814
GGGTTG	0.139	0.366	0.215	0.308	0.391
TGAGAG	-0.074	-0.524	-0.384	-0.144	0.102
AGTAGA	-0.1	-0.249	-0.368	-0.258	0.055
TGGCTG	0.419	0.292	0.335	0.33	0.4
GGCCCA	-0.606	-0.357	0.174	-0.53	-0.783
